Laboratory results from the supplement of paper PMC4723716.
± gives the uncertainty stated by the source. The full ranking holds about 9,900 compounds; the median of “viability index relative to DMSO control” is about 1, and the lowest 2% start at about 0.85. The list shows a part of the results.

System: Plasmodium falciparum NF54 stage V gametocytes
Experiment: viability index relative to DMSO control (fraction); higher = less gametocyte killing
Conditions: 2.5 µM, library set: Broad Institute DOS, incubation time: 72 h
How it was run: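 P. falciparum NF54 stage V gametocytes in serum-free screening medium (0.75% gametocytemia, 1.25% hematocrit, 10 µl) were incubated with compound at 2.5 µM in 1,536-well plates for 72 hr at 37°C under low oxygen. Then 3 µl of 2.5 µM MitoTracker Red CMXRos plus 0.13% saponin was added for one to two hours. One field per well was imaged, 20–70 µm2 red particles were counted, and the viability index was the count divided by the plate mean of DMSO wells.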

Compound	viability index
CO[C@@H]1CC[C@H]2CCOc3c(C#N)cccc3C(=O)N(C)C[C@@H](c3ccccc3)CC(=O)N(C)C[C@@H]1O2	1.01 ± 0.049
COc1ccc(-c2cn(CC[C@H]3CC[C@@H](NC(=O)c4cnccn4)[C@@H](CO)O3)nn2)cc1	1.21 ± 0.081
O=S(=O)(Cc1ccccc1)N1CC2(C1)[C@H](c1ccccc1)[C@H](CO)N2CC1CCCC1	1.1139 ± 0.00092
C[C@H](CO)N1C[C@H](C)[C@@H](CN(C)S(=O)(=O)c2ccc3c(c2)OCCCO3)OCc2cnnn2CCCC1=O	1.003 ± 0.0081
CS(=O)(=O)N1[C@@H](C#N)[C@@H](c2ccc(C#Cc3cccc(F)c3)cc2)[C@@H]1CO	1 ± 0.087
Cc1noc(C)c1C(=O)N(C)C[C@H]1OCc2ccccc2-c2ccccc2C(=O)N([C@H](C)CO)C[C@H]1C	0.988 ± 0.047
CCC(=O)N[C@H]1CC[C@@H](CC(=O)NCc2ccccc2F)O[C@@H]1CO	1.12 ± 0.067
C[C@H]1CN([C@@H](C)CO)C(=O)Cc2cc(NC(=O)CCN3CCOCC3)ccc2O[C@H]1CN(C)Cc1ccc(C(=O)O)cc1	1.01 ± 0.043
O=C(C[C@@H]1C=C[C@@H](NC(=O)Cc2ccccn2)[C@H](CO)O1)NCCc1ccncc1	0.908 ± 0.09
CCC(=O)N1CC2(C1)[C@H](c1ccccc1)[C@@H](CO)N2CC1CC1	1.05 ± 0.078
COc1ccc2c3c([C@@H](CO)NC[C@]33CN(C3)C(=O)CC3CC3)n(C)c2c1	1.04 ± 0.081
O=C(C1CCCCC1)N1[C@@H]2CNc3ccccc3[C@@H]2[C@@H]1CO	1.03 ± 0.15
CO[C@@H]1CN(C)C(=O)c2ccc(NS(=O)(=O)c3c(C)noc3C)cc2OC[C@H](C)NC[C@H]1C	1.1 ± 0.048
O=C1CNC[C@@H]2[C@@H](c3ccc(C#Cc4cccnc4)cc3)[C@@H](CO)N12	1.05 ± 0.021
CCCC(=O)N1CC[C@@]2(CC1)CN([C@H](CO)c1[nH]c3cc(OC)ccc3c21)C(=O)C1CCC1	1.05 ± 0.084
CO[C@@H](CN(C)S(=O)(=O)c1ccc(C)cc1)[C@@H](C)CN([C@@H](C)CO)S(=O)(=O)c1cccc(Cl)c1	1.04 ± 0.026
C[C@@H]1CCCCO[C@H](CN(C)Cc2ccc(Cl)c(Cl)c2)[C@@H](C)CN([C@H](C)CO)C(=O)c2cc(NC(=O)c3ccncc3)ccc2O1	1.05 ± 0.047
O=C(Nc1ccc2c(c1)[C@H]1C[C@@H](CC(=O)N3CCOCC3)O[C@H](CO)[C@H]1O2)Nc1ccccc1F	1.11 ± 0.032

Compound	viability index
CCC(=O)N1[C@@H](CO)[C@@H](c2ccccc2)C12CN(C(=O)c1ccncc1)C2	1.01 ± 0.071
C[C@@H]1CN([C@@H](C)CO)C(=O)c2cccc(NS(=O)(=O)c3ccc(F)cc3)c2O[C@@H]1CN(C)Cc1ccc(Cl)c(Cl)c1	1.01 ± 0.14
COc1ccc(NC(=O)N(C)C[C@H]2OCc3cnnn3CCCC(=O)N([C@@H](C)CO)C[C@H]2C)c(OC)c1	0.968 ± 0.03
N#C[C@H]1[C@@H](c2ccccc2-c2cccc(F)c2)[C@@H](CO)N1C(=O)c1cccnc1	1.11 ± 0.1
CNC[C@@H]1Oc2ncc(-c3cncnc3)cc2C(=O)N([C@@H](C)CO)C[C@H]1C	1.09 ± 0.012
COc1ccc2c3c([C@H](CO)NC[C@]33CN(C3)C(=O)c3cccc(F)c3)n(C)c2c1	1.03 ± 0.052
CC(=O)N1[C@H](CO)[C@@H](c2ccccc2)[C@H]1CN(CC(C)C)C(=O)c1ccccn1	1.058 ± 0.0036
COc1ccc(CN(C)C[C@@H]2OCCCC[C@H](C)Oc3ccc(NC(=O)C4CCCCC4)cc3C(=O)N([C@@H](C)CO)C[C@H]2C)cc1	1.07 ± 0.072
C[C@@H]1CN([C@H](C)CO)C(=O)CCCn2cc(nn2)CO[C@@H]1CN(C)C(=O)c1ccc(N2CCN(C)CC2)cc1	0.987 ± 0.052
CO[C@H]1CN(C)C(=O)c2cc(NC(=O)c3nc4ccccc4s3)ccc2OC[C@@H](C)NC[C@@H]1C	1.11 ± 0.074
Cn1cnc(CCNC(=O)C[C@@H]2CC[C@H]3[C@@H](COC[C@@H](O)CN3C(=O)Nc3ccc(C(F)(F)F)cc3)O2)c1	1.06 ± 0.051
O=C(N[C@H]1CC[C@@H](CC(=O)N2CCOCC2)O[C@@H]1CO)c1cccc(F)c1	1.03 ± 0.074
CCC(=O)N(CC(C)C)C[C@@H]1[C@@H](c2ccccc2)[C@H](CO)N1C(=O)C1CCC1	0.982 ± 0.02
COc1cccc(C#Cc2ccc3c(c2)O[C@H](CN(C)C(=O)CN2CCOCC2)[C@H](C)CN([C@@H](C)CO)S3(=O)=O)c1	1.03 ± 0.13
CCS(=O)(=O)N1C[C@@]2(C1)CN(Cc1ccccc1F)[C@H](CO)c1[nH]c3cc(OC)ccc3c21	0.9355 ± 0.0019
O=C1NC(Cc2cccc(Cl)c2)COCc2cnnn2CCC1c1ccccc1 (stereo unspecified)	0.96562 ± 0.00019
N#C[C@@H]1[C@@H](c2ccc(-c3cccnc3)cc2)[C@H](CO)N1C(=O)C1CCOCC1	1.086 ± 0.0017
COCC(=O)N1C[C@@]2(C1)CN(Cc1ccc3OCOc3c1)[C@H](CO)c1c2c2ccc(OC)cc2n1C	0.938 ± 0.068
